In all, about 1,000 compounds were measured (“relative growth in counter assay (no AraC = 100%, AraC + DMSO = 0%)”: median about -1.1, highest 2% from about 20 on). This is one part of the list.

This assay relates to HEK293FT dCK*-only. Description: relative growth in counter assay (no AraC = 100%, AraC + DMSO = 0%); higher = more growth rescue independent of IKZF1. As to conditions: compound concentration: 5 uM; AraC concentration: 0.3 uM; overnight pretreatment + 4 days AraC. The protocol:
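Growth recovery screen of the molecular-glue-like (Specs) library. HEK293FT cells expressing a dCK*-IKZF1 fusion (primary) or dCK* alone (counter) were pretreated overnight with compound at 5 uM, then given 0.3 uM AraC for 4 days. Hoechst nuclei were counted by imaging. Primary: normalised to pomalidomide (100%) and DMSO (0%), mean of 2 replicates. Counter: normalised to no-AraC (100%) and AraC+DMSO (0%), single replicate.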
For `Nc1ccc(Oc2ccc3c(c2)C(=O)N(CCO)C3=O)cc1`, the “relative growth in counter assay” value came to 0.81%.
For `CC(=O)Nc1cccc(Oc2ccc3c(c2)C(=O)N(c2ccc(OC(C)=O)cc2)C3=O)c1` the value was 1.8%; for `Cc1cnc(Nc2cccc(C3CN(C(=O)CN(C(=O)OC(C)(C)C)c4ccccc4)CCO3)n2)s1` (stereo not given), -15.5%; for `CCCc1cnc(Nc2cccc(C3CN(C(=O)C4CCCCC4)CCO3)n2)s1` (stereo not given), -12.3%.
Regarding `COc1ccc(-c2csc(Nc3ccc(S(=O)(=O)Nc4cc(OC)nc(OC)n4)cc3)n2)cc1`, the “relative growth in counter assay” value was -3.14%.
Regarding `COc1ccc(Br)cc1/C=N/NS(=O)(=O)c1ccccc1`, the “relative growth in counter assay” value is -21.2%.
Take `COc1cc(CN2CCCC2c2cccc(Nc3nccs3)n2)ccc1OCC(N)=O` (stereo not given): the “relative growth in counter assay” value was 3.54%.
The figure for `CC(C)(N)C(=O)N1CCC(c2cccc(Nc3ncc(CC(F)(F)F)s3)n2)CC1` is -21.1%; for `Cc1nc(Nc2cccc(C3CCN(C(=O)CCC4NC(=O)NC4=O)CC3)n2)sc1C` (stereo not given) it is 2.58%.
For `Cc1ccc(Nc2nc(C3CCCN(C(=O)/C=C/c4csc(C)n4)C3)cs2)nc1` (stereo not given) the value was 3.58%; for `Cc1cnc(Nc2cccc(C3CCN(C(=O)[C@H]4CCCC[C@H]4C(=O)N(C)C)CC3)n2)s1`, -22.3%.
For `COc1ccc(NS(=O)(=O)c2ccc(NS(=O)(=O)c3ccccc3)cc2)nn1` the value was -2.89%.
For the molecule `Cc1cnc(Nc2cccc(C3CN(C(=O)C45CC6CC(CC(O)(C6)C4)C5)CCO3)n2)s1` (stereo not given), the “relative growth in counter assay” value is -16.8%.
Consider `Cc1ccnc(NS(=O)(=O)c2ccc(NC(=O)C34CC5CC(CC(C5)C3)C4)cc2)n1`, for which the “relative growth in counter assay” value was -15.3%.
`O=C(Nc1ccc(S(=O)(=O)Nc2ccccn2)cc1)c1ccc(Cl)cc1Cl`: the “relative growth in counter assay” value is 7.6%.
Take `Nc1ccc(C(=O)N2CCCC2c2cccc(Nc3nccs3)n2)cn1` (stereo not given): the “relative growth in counter assay” value was -0.6%.
The figure for `Cc1cnc(Nc2cccc(C3CCCN3C(=O)CCn3c(=O)oc4ccccc43)n2)s1` (stereo not given) is -16.3%; for `Cc1nc(Nc2cccc(C3CCCN3C(=O)c3cc4ccc(F)cc4[nH]3)n2)sc1C` (stereo not given) it is 9.01%.
For `Cc1cnc(Nc2cccc(C3CCN(CC(N)=O)CC3)n2)s1` the value was -24.9%.
The figure for `Cc1csc(Nc2cccc(C3CN(C(=O)CCOc4ccccc4C)CCO3)n2)n1` (stereo not given) is 49.2%.
Regarding `CCCCc1cnc(Nc2cccc(C3CCN(C(=O)[C@@H]4CCCN4CCO)CC3)n2)s1`, the “relative growth in counter assay” value came out at 2.3%.
As for `Cc1cc(Cl)ccc1OCC(=O)Nc1ccc(S(=O)(=O)Nc2ncccn2)cc1`, the “relative growth in counter assay” value was -1.87%.
Turning to `CCCC(=O)Nc1ccc(S(=O)(=O)Nc2cc(OC)nc(OC)n2)cc1`, the “relative growth in counter assay” value is -1.4%.
For `COc1cc(OC)cc(C(=O)Nc2ccc(S(=O)(=O)Nc3nc(C)cc(C)n3)cc2)c1` the value was -0.77%.
For `CCCc1nc2ccccc2n1CC(=O)N1CCOC(c2cccc(Nc3ncc(C)s3)n2)C1` (stereo not given) the value was -16.5%.
In the case of `Cc1ccn(CCC(=O)N2CCOC(c3cccc(Nc4ncc(C)s4)n3)C2)n1` (stereo not given), the “relative growth in counter assay” value was -1.16%.
For `CCc1ccc(OCC(=O)Nc2ccc(S(=O)(=O)Nc3nc(C)cc(C)n3)cc2)cc1` the value was -9.47%; for `Cc1cccc(C)c1OCC(=O)Nc1ccc(S(=O)(=O)Nc2ccccn2)cc1`, -8.13%.
In the case of `CC(=O)N1CCC(c2cccc(Nc3ncc(C)s3)n2)CC1`, the “relative growth in counter assay” value was -25.3%.
On to `CCc1ccccc1OCC(=O)Nc1ccc(S(=O)(=O)Nc2nc(C)cc(C)n2)cc1`, for which the “relative growth in counter assay” value turned out to be 5.52%.
For `COc1ccccc1C(=O)Nc1ccc(S(=O)(=O)Nc2nccc(C)n2)cc1`, the “relative growth in counter assay” value was -6.32%.
For `COc1ccc(NS(=O)(=O)c2ccc(NC(=S)NC(=O)/C=C/c3ccccc3)cc2)nn1` the value was 1.67%.
The figure for `Nc1ccc(S(=O)(=O)Nc2nccc(/C=C/c3cccc(Br)c3)n2)cc1` is 8.78%; for `Cc1csc(Nc2cccc(C3CCCN3C(=O)COCCN3CCCC3=O)n2)n1` (stereo not given) it is -0.54%; for `O=C(O)c1ccc(Oc2ccc3c(c2)C(=O)N(c2nccs2)C3=O)cc1` it is 3.45%.
For the molecule `NC(=O)CN1CCCC(c2csc(Nc3ccccn3)n2)C1` (stereo not given), the “relative growth in counter assay” value is -9.34%.
`COc1ccccc1OCC(=O)Nc1ccc(S(=O)(=O)Nc2ncccn2)cc1`: the “relative growth in counter assay” value is 9.82%.
As to `COc1cc(NS(=O)(=O)c2ccc(NS(=O)(=O)c3ccccc3)cc2)nc(OC)n1`, the “relative growth in counter assay” value is -2.98%.
Turning to `COCCC(=O)N1CCC(c2cccc(Nc3ncc(C)s3)n2)CC1`, the “relative growth in counter assay” value was -4.11%.
As to `CC(=O)Nc1ccc(-c2csc(Nc3cccc(C)n3)n2)cc1`, the “relative growth in counter assay” value was determined as 5.34%.
For `Cc1cnc(Nc2cccc(C3CCN(C(=O)CN(C)C)CC3)n2)s1` the value was -21.2%; for `O=C(O)CCOCCOCCNc1cccc2c1C(=O)N(C1CCC(=O)NC1=O)C2=O` (stereo not given), 1.04%.
For `COc1ccccc1CCC(=O)N1CCC(c2cccc(Nc3nc(C)cs3)n2)CC1` the value was 1.77%; for `Cc1cc(C)nc(NS(=O)(=O)c2ccc(NC(=O)CSc3nc(C)cc(C)c3C#N)cc2)n1`, -2.72%; for `Cc1cnc(Nc2cccc(C3CCN(C(=O)CCc4nc5ccccc5[nH]4)CC3)n2)s1`, -4.59%.
The figure for `CCCOc1ccc(/C=C/C(=O)Nc2ccc(S(=O)(=O)Nc3ncccn3)cc2)cc1OC` is -8.12%; for `Cc1nc(Nc2cccc(C3CCCN3C(=O)CCc3nnc(C(C)C)o3)n2)sc1C` (stereo not given) it is 0.87%; for `O=C(Nc1ccc(S(=O)(=O)Nc2ccccn2)cc1)c1cccs1` it is -6.58%.
With `CCc1nnsc1C(=O)N1CCCC1c1cccc(Nc2nccs2)n1` (stereo not given), the “relative growth in counter assay” value was -6.83%.
In the case of `Cc1cc(NS(=O)(=O)c2ccc(NC(=O)COc3ccc(C(C)C)cc3)cc2)nc(C)n1`, the “relative growth in counter assay” value was -0.57%.
The figure for `COc1ccc2[nH]c3nc(SCC(=O)N(Cc4ccccc4)c4ccc(F)cc4)nnc3c2c1` is 17.4%.
On to `O=C1CCC(N2C(=O)c3cccc(N4CCC(C(=O)O)(c5ccccc5)CC4)c3C2=O)C(=O)N1` (stereo not given), for which the “relative growth in counter assay” value was determined as 4.08%.
For `COC1CCCC(C(=O)N2CCC(c3cccc(Nc4ncc(C)s4)n3)CC2)C1` (stereo not given), the “relative growth in counter assay” value is -20.1%.
`Cc1cnc(Nc2cccc(C3CCCN3C(=O)CCN(C)c3cccc(F)c3)n2)s1` (stereo not given): the “relative growth in counter assay” value was -25.9%.
For `CCC(=O)N1CCOC(c2cccc(Nc3nc(C)c(C)s3)n2)C1` (stereo not given) the value was 7.53%.
For `CCNc1nc(NC(C)C)nc(NS(=O)(=O)c2ccc(N)cc2)n1` the value was 0.52%.
With `CCC(C)C(=O)Nc1ccc(S(=O)(=O)Nc2ncccn2)cc1` (stereo not given), the “relative growth in counter assay” value amounted to 0%.
For `Cc1nc(Nc2cccc(C3CN(C(=O)c4cn5cccc(C)c5n4)CCO3)n2)sc1C` (stereo not given) the value was 2.16%.
The figure for `COc1nccnc1NS(=O)(=O)c1ccc(NCc2ccccc2O)cc1` is 1.3%.
For `CS(=O)(=O)NCC(=O)N1CCC(c2cccc(Nc3ncc(-c4ccccc4)s3)n2)CC1` the value was -24.9%; for `Cc1cnc(Nc2cccc(C3CN(C(=O)CCC4CCCCC4)CCO3)n2)s1` (stereo not given), -1.73%; for `CCOc1ccc(C(=O)Nc2ccc(S(=O)(=O)Nc3nccc(C)n3)cc2)cc1OCC`, -1.48%.
Take `CC(C)c1cnc(Nc2cccc(C3CN(C(=O)C4CCCCC4)CCO3)n2)s1` (stereo not given): the “relative growth in counter assay” value came out at 3.17%.
`Cc1ccc(C(C)C)c(OCC(=O)Nc2ccc(S(=O)(=O)Nc3ccccn3)cc2)c1`: the “relative growth in counter assay” value was -4.72%.
Regarding `COc1cc(NS(=O)(=O)c2ccc(Nc3nc(-c4ccc(C)c(C)c4)cs3)cc2)nc(OC)n1`, the “relative growth in counter assay” value came to 4.93%.
As to `COc1ccc(N2C(=O)c3ccc(Oc4ccccc4)cc3C2=O)cc1`, the “relative growth in counter assay” value was -22.4%.
The figure for `Cc1ccc(S(=O)(=O)CC(=O)Nc2ccc(S(=O)(=O)Nc3ncccn3)cc2)cc1` is 2.98%.
For `CC(C)Cc1nc2ccccc2n1CC(=O)N1CCC(Cc2cccc(Nc3nccs3)n2)CC1` the value was 3.92%.
As to `CCOC(=O)c1ccc(N2C(=O)c3ccc(Oc4cccc(N)c4)cc3C2=O)cc1`, the “relative growth in counter assay” value was -0.53%.
The figure for `Cc1cnc(Nc2cccc(C3CCCN3CC(N)=O)n2)s1` (stereo not given) is -25.2%.
The figure for `CC(=O)Nc1ccc(S(=O)(=O)N(Cc2ccccc2)c2ccccn2)cc1` is 21%; for `COc1cccc(OC)c1C(=O)Nc1ccc(S(=O)(=O)Nc2ncccn2)cc1` it is -5.57%; for `CNC(=O)C1(c2cccc(Nc3ncc(C)s3)n2)CN(C(=O)Cn2c(CC(C)C)nc3ccccc32)CCO1` (stereo not given) it is 0.83%.
Turning to `Cc1cnc(Nc2cccc(C3CCN(C(=O)C4(NC(=O)CC(C)C)CCCCC4)CC3)n2)s1`, the “relative growth in counter assay” value was -23.1%.
As to `O=C1CCC(N2C(=O)c3ccc(N4CCC(C(=O)O)CC4)cc3C2=O)C(=O)N1` (stereo not given), the “relative growth in counter assay” value turned out to be 0.27%.
The figure for `Cc1ccc(C(=O)Nc2ccc(S(=O)(=O)Nc3nc(C)cc(C)n3)cc2)cc1` is -6.33%.
The figure for `Cc1cc(C)nc(NS(=O)(=O)c2ccc(NC(=O)Nc3ccccc3)cc2)n1` is 2.55%; for `Cc1csc(Nc2cccc(C3CCCN3C(=O)CCOc3ccccc3C)n2)n1` (stereo not given) it is 19.2%.
The figure for `Cc1cnc(Nc2cccc(C3CN(C(=O)Cc4ccccc4)CCO3)n2)s1` (stereo not given) is -5.45%; for `O=C(Nc1ccc(S(=O)(=O)Nc2ncccn2)cc1)c1cc(Cl)ccc1Cl` it is 1.91%; for `Cc1cc(C)nc(NS(=O)(=O)c2ccc(Nc3nc(-c4cccnc4)cs3)cc2)n1` it is 0.46%.
As for `Cc1csc(Nc2cccc(C3CCN(C(=O)c4cnccn4)CC3)n2)n1`, the “relative growth in counter assay” value amounted to 0.29%.
The figure for `C=CCc1cccc(CNc2ccc(S(=O)(=O)Nc3nccnc3OC)cc2)c1O` is -1%; for `Cc1cccc(OCC(=O)Nc2ccc(S(=O)(=O)Nc3cc(C)nc(C)n3)cc2)c1` it is -3.57%; for `Cc1cnc(Nc2cccc(C(CO)C3CCN(C(=O)C4(NC(=O)OC(C)(C)C)CCCCC4)CC3)n2)s1` (stereo not given) it is 0.59%.
For `CCCOc1ccc(C(=O)Nc2ccc(S(=O)(=O)Nc3nc(C)cc(C)n3)cc2)cc1` the value was 5.24%.
For `Cc1cc(C)cc(OCC(=O)Nc2ccc(S(=O)(=O)Nc3ncccn3)cc2)c1` the value was -3.47%.
As for `O=C(CSc1nnc2c(n1)[nH]c1ccc(Cl)cc12)Nc1ccc(Cl)cc1`, the “relative growth in counter assay” value came out at 3.64%.
For `CC(C)(C)OC(=O)N1CCOCC1C(=O)N1CCC(c2cccc(Nc3ncc(-c4ccccc4)s3)n2)CC1` (stereo not given) the value was 3.05%.
With `CCOCCC(=O)Nc1ccc(S(=O)(=O)Nc2ncccn2)cc1`, the “relative growth in counter assay” value came to 3.97%.
In the case of `Cc1cc(C)nc(NS(=O)(=O)c2ccc(NC(=O)c3ccc(Cl)cc3Cl)cc2)n1`, the “relative growth in counter assay” value is -1.97%.
Consider `Cc1ccnc(NS(=O)(=O)c2ccc(NC(=O)Cc3ccc(Cl)cc3)cc2)n1`, for which the “relative growth in counter assay” value is 4.12%.
The figure for `Cc1ccnc(NS(=O)(=O)c2ccc(NC(=O)c3ccc(Cl)cc3[N+](=O)[O-])cc2)n1` is -5.55%; for `Cc1cnc(Nc2cccc(C3CCN(C(=O)C4C5C=CC6(CN(C)C(=O)C46)O5)CC3)n2)s1` (stereo not given) it is 0.67%; for `O=C(Nc1ccc(S(=O)(=O)Nc2ncccn2)cc1)c1ccc(Br)cc1` it is 1.1%.

The record behind these values is the supplement of paper PMC12340641.
